# In PubChem BioAssay (NCATS):
# This list was built around the results that the source calls inconclusive (neither active nor inactive); the mix of calls is not that of the screen. No potency is given beside an inconclusive call; the fits are too rough. Calls of active or inactive are those of the source. Calls follow the shape of the dose curve; as a rule, active = well fitted inhibition curve with a large enough effect; inconclusive = small, poorly fitted or top-dose-only effect, or another doubt; inactive = no such curve, though single readings can be large or run the other way.
# Molecular target: DNA polymerase eta (Homo sapiens) (UniProt Q9Y253)
# Sequence of UniProt Q9Y253 (Q9Y253 whole entry, looked up): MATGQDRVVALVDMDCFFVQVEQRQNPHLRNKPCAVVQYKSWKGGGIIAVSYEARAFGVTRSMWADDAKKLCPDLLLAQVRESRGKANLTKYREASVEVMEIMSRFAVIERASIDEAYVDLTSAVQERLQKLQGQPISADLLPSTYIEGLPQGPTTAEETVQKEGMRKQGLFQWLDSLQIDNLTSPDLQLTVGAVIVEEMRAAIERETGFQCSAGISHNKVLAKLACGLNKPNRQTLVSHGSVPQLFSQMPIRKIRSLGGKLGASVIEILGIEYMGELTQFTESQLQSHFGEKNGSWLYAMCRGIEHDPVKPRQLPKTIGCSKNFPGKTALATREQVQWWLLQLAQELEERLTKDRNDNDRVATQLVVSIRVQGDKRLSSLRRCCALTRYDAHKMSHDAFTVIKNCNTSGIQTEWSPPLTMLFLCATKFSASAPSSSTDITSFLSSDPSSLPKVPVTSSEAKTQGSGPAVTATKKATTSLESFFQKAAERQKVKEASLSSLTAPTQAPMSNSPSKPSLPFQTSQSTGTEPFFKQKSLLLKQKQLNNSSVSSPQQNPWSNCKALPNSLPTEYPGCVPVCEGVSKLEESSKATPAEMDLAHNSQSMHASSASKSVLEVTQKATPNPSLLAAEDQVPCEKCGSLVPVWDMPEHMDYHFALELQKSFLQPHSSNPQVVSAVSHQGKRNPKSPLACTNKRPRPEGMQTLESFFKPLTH
# Test: qHTS for Inhibitors of Polymerase Eta: Confirmatory Assay for Cherry-picked Compounds (AID 720502)
# Conditions: Pol eta primer extension, TAMRA/BHQ fluorescence, 10 min
# How it was run: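 Enzyme at 10 nM is mixed with pin-transferred compound and left 15 min at room temperature. Substrate (50 nM final) is then added, and plates are read at 0 min and after 10 min.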
# Potency is read from the fitted curve at half-maximal effect; tags tell the direction and shape of the fitted curve.
row,SMILES,Potency
1,CCn1nc(-c2ccccc2C)nc2c(=O)n(C)c(=O)nc1-2,active: 3.79 µM
2,Cc1csc(=O)n1CCC(=O)OCC(=O)Nc1ncc(Cl)cc1Cl,"inconclusive [inhibitor, partial curve, poor fit]"
3,O=C(Nc1ccc(Br)cc1Cl)c1cnccn1,active: 75.7 µM
4,O=C(O)CCN1C(=O)/C(=C/c2cn(-c3ccccc3)nc2-c2cccs2)SC1=S,active: 42.6 µM
5,Cc1cc(/C=c2\sc3nc4ccccc4n3c2=O)c(C)n1-c1ccc(C(=O)O)cc1,"inconclusive [inhibitor, single point]"
6,CNc1ccc(Br)cc(C(=O)/C=C/c2ccc3c(c2)OCO3)c1=O,"inconclusive [inhibitor, single point]"
7,O=C(O)c1ccc(C(=O)c2ccc3c(c2)C(=O)N(Cc2ccco2)C3=O)cc1,"inconclusive [inhibitor, single point]"
8,O=C1NC(=S)S/C1=C/c1ccc(N2CCOCC2)o1,active: 75.7 µM
9,COc1cc2ccccc2cc1C(=O)NC(=S)Nc1ccc(C(=O)O)cc1,"inconclusive [inhibitor, partial curve]"
10,COc1cc(C2C(C#N)=C(N)OC3=C2C(=O)CC(C)(C)C3)cc2c1OCO2 (stereo unspecified),"inconclusive [inhibitor, single point]"
11,O=C(CSc1ccsc1[N+](=O)[O-])N1CCN(c2ccc(Cl)cc2)CC1,"inconclusive [inhibitor, single point]"
